# Reference: PMC6919601, “Identification of Plasmodium dipeptidyl aminopeptidase allosteric inhibitors by high throughput screening” (PLoS ONE, 2019)
# The whole screen tested about 110,000 compounds, of which about 230 (0.21%) showed an effect of 50% or more. Some of the results follow.
# Target: DPAP1 (Plasmodium falciparum, UniProt Q8IIJ9)
# Assay: primary screen, percent inhibition; read by cleavage of a fluorogenic dipeptide substrate; higher = more effect of the substance
# Parameters: species or system P. falciparum D10 trophozoite lysates; single well
# 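Further: 30 min substrate incubation versus DMSO and 10 µM JCP410 controls.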
# Sequence of DPAP1 (Q8IIJ9 whole entry, looked up): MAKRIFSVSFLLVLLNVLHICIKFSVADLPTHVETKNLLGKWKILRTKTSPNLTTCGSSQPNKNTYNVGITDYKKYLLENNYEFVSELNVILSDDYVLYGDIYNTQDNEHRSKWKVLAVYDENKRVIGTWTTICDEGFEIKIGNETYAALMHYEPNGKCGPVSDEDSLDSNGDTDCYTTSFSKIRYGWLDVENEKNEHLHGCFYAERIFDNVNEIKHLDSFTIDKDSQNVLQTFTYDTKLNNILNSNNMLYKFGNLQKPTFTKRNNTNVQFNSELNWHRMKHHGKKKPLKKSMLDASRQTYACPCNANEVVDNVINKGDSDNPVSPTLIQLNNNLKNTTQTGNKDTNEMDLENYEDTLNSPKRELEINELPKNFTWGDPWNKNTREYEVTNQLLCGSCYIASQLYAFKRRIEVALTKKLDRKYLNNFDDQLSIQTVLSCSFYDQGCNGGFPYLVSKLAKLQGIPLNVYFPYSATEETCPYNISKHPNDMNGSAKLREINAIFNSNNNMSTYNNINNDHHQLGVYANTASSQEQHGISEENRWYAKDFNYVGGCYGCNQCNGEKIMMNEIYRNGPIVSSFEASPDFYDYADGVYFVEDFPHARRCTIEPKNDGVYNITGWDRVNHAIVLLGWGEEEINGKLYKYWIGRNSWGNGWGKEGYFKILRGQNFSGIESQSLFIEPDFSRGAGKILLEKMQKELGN
row,Structure (SMILES),% Inhibition @ 10 uM [%]
1,CN1CCN(C(=O)c2ccc(Cn3c(SCc4ccccc4F)nc4ccncc43)cc2)CC1,-1.92
2,O=C(CC(NC(=O)C(F)(F)F)c1ccccc1)Nc1ccc(Br)cc1 (stereo not shown),0.266
3,Cc1ccc2oc3c(c(=O)c2c1)C(c1ccc(O)cc1)N(Cc1ccc(F)cc1)C3=O (stereo not shown),5.3
4,O=S(=O)(Nc1ccc(Br)cc1)c1ccc(-c2ccccc2)cc1,1.38
5,O=C(COCc1cc(-c2ccc(F)cc2)on1)Nc1cccnc1Cl,-3.1
6,Cc1ccccc1C1CC(=O)NC(SCC(=O)Nc2ccccc2)=C1C#N (stereo not shown),-3.77
7,COc1cccc(C(c2c(O)nc(S)nc2O)N2CCC(C)CC2)c1OC (stereo not shown),1.3
8,CCOc1cc(C(=O)NCCN(C)C)cc(OCC)c1OCC,2.25
9,CCOc1ccc(NC2(c3nnnn3-c3c(C)cccc3C)CCCCC2)cc1,11.6
10,CCC(=O)Nc1ccc(S(=O)(=O)N2CCCCC2)cc1,0.755
11,CC1CCN(C(=O)c2ccc(Br)cc2)CC1,-3.42
12,COc1ccc(-c2cc(C(F)F)n3ncc(C(=O)N4C(C)CCCC4C)c3n2)cc1 (stereo not shown),21.1
13,COc1ccc(N2CCN(Cc3ccc4c(c3)OCO4)CC2)cc1,3.8
14,Cc1ccc(N(CC(=O)Nc2c(C)cccc2C)S(C)(=O)=O)cc1Cl,-5.13
15,Cc1ccc(OCC(=O)O/N=C(\N)c2cccnc2)c(C)c1,-7.09
16,O=[N+]([O-])c1ccccc1S(=O)(=O)NC1CCCCCC1,0.526
17,CCOc1ccc(NC(=O)c2ccccc2NC(=O)c2ccc(C)cc2)cc1,2.69
18,COc1ccc(Cl)cc1-n1nnc(-c2nc3ccccc3[nH]2)c1N,1.76
19,OC1=C2CN(CCc3ccccc3)CN=C2Sc2ccccc21,3.48
20,Cc1ccc(OCC(=O)N[C@@H](C)c2ccccc2)c(Br)c1,-3.09
21,O=C(CCc1nc(-c2ccccc2F)no1)N1CCC2(CC1)OCCO2,0.738
22,CC1(C)CC2(CCCCC2)NCc2ccccc21,1.82
23,Cc1ccc(C)n1-c1nnc(N2CCCC(C(=O)NCCN(C)C)C2)s1 (stereo not shown),1.72
24,Cc1nn(-c2ccccc2)c2c1C(c1cccc(Cl)c1)C(C#N)=C(N)O2 (stereo not shown),3.65
25,Cc1cccc(CNC(=O)Cn2nc(C)c3c(C)n(-c4ccccc4)nc3c2=O)c1,11.3
26,NC(=O)c1ccccc1NC(=O)C(c1ccccc1)c1ccccc1,-5.71
27,CCCCNC(=O)c1cc(-c2ccncc2)nc2ccccc12,-0.519
28,CCSc1nc(O)c2c(n1)N=C1CCCC(O)=C1C2c1ccc(O)c(OC)c1 (stereo not shown),2.38
